Experimental data published in the supplement of paper PMC4604168 (melanoma cell lines).
The list shows a part of the results. Single values are uncertain, as repeats are few or missing.

Assays:
Test in all cases: cell count relative to DMSO control; melanoma cells; higher = more viable cells
Conditions in all cases: library dose: standard library concentration; 72 h
[1] = system: G361
[2] = system: IPC-298
[3] = system: IST-MEL1
[4] = system: LB2518-MEL
[5] = system: LOXIMVI
[6] = system: MEL-HO
[7] = system: MZ2-MEL
[8] = system: MeWo
[9] = system: RPMI7951
[10] = system: RVH-421
[11] = system: SkMel28
[12] = system: SkMel2
[13] = system: SkMel30
[14] = system: SkMel5
[15] = system: UACC257
[16] = system: UACC62
[17] = system: WM115
[18] = system: WM1716
[19] = system: WM3526
[20] = system: WM1745
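Further: cells treated in 1,536-well plates, then fixed and DAPI-stained, with nuclei counted from automated high-throughput microscope images.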

| Structure (SMILES) | cell count [1] | cell count [2] | cell count [3] | cell count [4] | cell count [5] | cell count [6] | cell count [7] | cell count [8] | cell count [9] | cell count [10] | cell count [11] | cell count [12] | cell count [13] | cell count [14] | cell count [15] | cell count [16] | cell count [17] | cell count [18] | cell count [19] | cell count [20] |
| --- | --- | --- | --- | --- | --- | --- | --- | --- | --- | --- | --- | --- | --- | --- | --- | --- | --- | --- | --- | --- |
| CS(=O)(=O)CCNCc1ccc(-c2ccc3ncnc(Nc4ccc(OCc5cccc(F)c5)c(Cl)c4)c3c2)o1 [lapatinib] + N#Cc1c(O)c2c(-c3ccc(-c4ccccc4O)cc3)csc2[nH]c1=O [A769662] (first compound 4 µM, partner dose 10 µM) | 85% | 93.4% | 82.4% | 119% | 109% | 70.1% | 76.1% | 71.1% | 61.3% | 113% | 106% | 85.7% | 83.3% | 64.4% | 100% | 74.8% | 88.6% | 99.9% | 70.3% |  |
| C=CCNC1=C2C[C@@H](C)C[C@H](OC)[C@H](O)[C@@H](C)/C=C(\C)[C@H](OC(N)=O)[C@@H](OC)/C=C\C=C(/C)C(=O)NC(=CC1=O)C2=O [Tanespimycin] + CCc1ccc(CCOc2ccc(CC3SC(=O)NC3=O)cc2)nc1 [pioglitazone] (first compound 0.01 µM, partner dose 10 µM) | 61.6% | 84.2% | 59.2% | 72.3% | 85.4% | 81.9% | 105% | 85.6% | 31.2% | 69.8% | 51% | 87.1% | 138% | 90.2% | 103% | 79.2% | 28.1% | 73.2% | 95.6% |  |
| C[C@@H](Oc1cc(-c2cnn(C3CCNCC3)c2)cnc1N)c1c(Cl)ccc(F)c1Cl [Crizotinib] + Nc1nc(F)nc2c1ncn2[C@@H]1O[C@H](CO)[C@@H](O)[C@@H]1O [fludarabine] (first compound 1 µM, partner dose 1 µM) | 88% | 69.1% | 64.7% |  | 152% | 80.1% |  | 80.7% | 62.4% | 73.7% | 6.02% | 1.97% | 18% | 34.3% | 33.2% | 51.3% | 87.8% | 101% | 24.2% | 57.6% |
| CNC(=O)c1cc(Oc2ccc(NC(=O)Nc3ccc(Cl)c(C(F)(F)F)c3)cc2)ccn1 [sorafenib] + COc1ccc(COc2ccc(Cc3cnc(N)nc3N)cc2OC)cc1 [GW2580] (first compound 2 µM, partner dose 5 µM) | 66.8% | 89.3% | 94.1% | 103% | 98.5% | 30.7% | 86.7% | 66.9% | 88.1% | 108% | 76.5% | 87% | 110% | 35.7% | 74.4% | 94.5% | 79.6% | 80.9% | 76.8% |  |
| C=CCNC1=C2C[C@@H](C)C[C@H](OC)[C@H](O)[C@@H](C)/C=C(\C)[C@H](OC(N)=O)[C@@H](OC)/C=C\C=C(/C)C(=O)NC(=CC1=O)C2=O [Tanespimycin] + COc1ccc(-c2ccc3c(N4CCOCC4)nc(N4C[C@@H](C)O[C@@H](C)C4)nc3n2)cc1CO [KU0063794] (first compound 0.01 µM, partner dose 0.1 µM) | 70.6% | 80.6% | 64.5% |  | 282% | 74.2% |  | 87.6% | 15.7% | 98.2% | 49.7% | 80.8% | 93.4% | 63% | 112% | 74% | 26% | 84.3% | 78.2% |  |
| CS(=O)(=O)CCNCc1ccc(-c2ccc3ncnc(Nc4ccc(OCc5cccc(F)c5)c(Cl)c4)c3c2)o1 [lapatinib] + CC(C)CCN1c2nc(Nc3cc(F)c(O)c(F)c3)ncc2N(C)C(=O)C1C [BID1870] (first compound 4 µM, partner dose 1 µM) | 34.8% | 71.6% | 77.9% | 129% | 84.1% | 59% | 82.5% | 58.3% | 55.1% | 76.3% | 51.5% | 67.5% | 50.8% | 43.3% | 79.9% | 60.1% | 104% | 84% | 67.3% |  |
| C[C@@H](Oc1cc(-c2cnn(C3CCNCC3)c2)cnc1N)c1c(Cl)ccc(F)c1Cl [Crizotinib] + N#Cc1c(O)c2c(-c3ccc(-c4ccccc4O)cc3)csc2[nH]c1=O [A769662] (first compound 1 µM, partner dose 10 µM) | 88.8% | 104% | 91.6% | 73.9% | 115% | 96.2% | 97.6% | 67.2% | 89.7% | 88.6% | 63.2% | 87.7% | 116% | 73.6% | 92.9% | 78.1% | 74.7% | 99.8% | 90.1% |  |
| CNC(=O)c1cc(Oc2ccc(NC(=O)Nc3ccc(Cl)c(C(F)(F)F)c3)cc2)ccn1 [sorafenib] + CC(C)CCN1c2nc(Nc3cc(F)c(O)c(F)c3)ncc2N(C)C(=O)C1C [BID1870] (first compound 2 µM, partner dose 1 µM) | 66% | 82% | 88.3% |  | 137% | 77.5% |  | 77.3% | 83.2% | 97.2% | 62.8% |  | 92.6% | 65.3% | 98.3% | 80.4% | 83.3% | 105% | 69.2% |  |
| CNC(=O)c1cc(Oc2ccc(NC(=O)Nc3ccc(Cl)c(C(F)(F)F)c3)cc2)ccn1 [sorafenib] + CCN(CC)CCCCNc1ncc2cc(-c3cc(OC)cc(OC)c3)c(NC(=O)NC(C)(C)C)nc2n1 [PD173074] (first compound 2 µM, partner dose 0.5 µM) | 95.4% | 96.9% | 101% | 87% | 128% | 100% | 102% | 86.5% | 88.7% | 92.8% | 124% | 89.7% | 113% | 109% | 96.5% | 118% | 90.8% | 95.9% | 81.3% |  |
| C[C@@H](Oc1cc(-c2cnn(C3CCNCC3)c2)cnc1N)c1c(Cl)ccc(F)c1Cl [Crizotinib] + O=C(Nc1cccc(Cl)c1)Nc1ncc(CCNc2ncnc3ccsc23)s1 [SNS314] (first compound 1 µM, partner dose 0.004 µM) | 75.5% | 91.6% | 57.7% |  | 75.7% | 73.9% |  | 46.8% | 71.4% | 52.8% | 47.4% | 78.7% | 84.9% | 88.5% | 63.2% | 70% | 31.8% | 56.8% | 60.7% | 62.8% |
| CN1CCN(c2ccc3nc(-c4c(N)c5c(F)cccc5[nH]c4=O)[nH]c3c2)CC1 [Dovitinib] + Nc1ccn([C@@H]2O[C@H](CO)[C@@H](O)C2(F)F)c(=O)n1 [gemcitabine] (first compound 0.5 µM, partner dose 0.002 µM) | 33.2% | 32.7% | 34.5% |  | 59.4% | 45.3% |  | 25.6% | 45.9% | 56.8% | 83.5% | 58.9% | 88.4% | 71.3% | 93.9% | 74.6% | 58.2% | 63.3% | 67.2% | 36.9% |
| CS(=O)(=O)CCNCc1ccc(-c2ccc3ncnc(Nc4ccc(OCc5cccc(F)c5)c(Cl)c4)c3c2)o1 [lapatinib] + COc1cc(Nc2ncc(F)c(Nc3ccc4c(n3)NC(=O)C(C)(C)O4)n2)cc(OC)c1OC [Tamatinib] (first compound 4 µM, partner dose 2 µM) | 43.7% | 81.2% | 49.2% |  | 16.1% | 49.2% |  | 59% | 5.13% | 80.6% | 60.3% | 66.5% | 71.6% | 35.9% | 77.2% | 41.6% | 79.3% | 46.9% | 49.4% | 31.7% |
| CS(=O)(=O)CCNCc1ccc(-c2ccc3ncnc(Nc4ccc(OCc5cccc(F)c5)c(Cl)c4)c3c2)o1 [lapatinib] + Nc1cccc2c1CN(C1CCC(=O)NC1=O)C2=O [lenalidomide] (first compound 4 µM, partner dose 5 µM) | 71.7% | 92.4% | 93% |  | 95.7% | 85% |  | 109% | 76.7% | 103% | 114% | 116% | 126% | 49.2% | 103% | 49.6% | 88.4% | 96% | 99.4% | 91.3% |
| C[C@@H](Oc1cc(-c2cnn(C3CCNCC3)c2)cnc1N)c1c(Cl)ccc(F)c1Cl [Crizotinib] + COc1cc(Nc2ncc(F)c(Nc3ccc4c(n3)NC(=O)C(C)(C)O4)n2)cc(OC)c1OC [Tamatinib] (first compound 1 µM, partner dose 2 µM) | 70% | 83% | 63.7% |  | 41.1% | 69.5% |  | 58.5% | 25.2% | 76.7% | 51.6% |  | 100% | 48.9% | 68.6% | 75.3% | 53.4% | 56% | 64.9% | 31.4% |
| CS(=O)(=O)CCNCc1ccc(-c2ccc3ncnc(Nc4ccc(OCc5cccc(F)c5)c(Cl)c4)c3c2)o1 [lapatinib] + C[C@]1(c2nc3c(C(N)=O)cccc3[nH]2)CCCN1 [Veliparib] (first compound 4 µM, partner dose 7 µM) | 70.8% | 76.7% | 86.8% |  | 68% | 69.3% |  | 67.6% | 77.8% | 69.7% | 57.2% | 80.6% | 98.4% | 52.6% | 109% | 41.5% | 63.6% | 96.7% | 77.9% | 61.6% |
| CN1CCN(c2ccc3nc(-c4c(N)c5c(F)cccc5[nH]c4=O)[nH]c3c2)CC1 [Dovitinib] + O=S(=O)(c1ccccc1)N(CC(F)(F)F)c1ccc(C(O)(C(F)(F)F)C(F)(F)F)cc1 [T0901317] (first compound 0.5 µM, partner dose 7 µM) | 52.4% | 63.2% | 63.2% |  | 75.1% | 80.2% |  | 51% | 71.9% | 85.1% | 51.2% | 70.7% | 76% | 57% | 73.6% | 55.7% | 63.6% | 73% | 75.6% |  |
| C[C@@H](Oc1cc(-c2cnn(C3CCNCC3)c2)cnc1N)c1c(Cl)ccc(F)c1Cl [Crizotinib] + c1cc(-c2cnn3cc(-c4ccc(OCCN5CCCCC5)cc4)cnc23)ccn1 [Dorsomorphin] (first compound 1 µM, partner dose 2 µM) | 42.4% | 82.8% | 81.2% | 55.2% | 86.2% | 80.2% | 59.6% | 51.3% | 68.8% | 89.9% | 48.8% | 66.7% | 94.3% | 42.8% | 65.5% | 60.2% | 34% | 52.2% | 65.8% |  |
